Results as given in the supplement of paper PMC11876631.
± gives the standard deviation of the averaged measurements. Laboratory Escherichia coli strains with one amino-acid change in an essential protein, pooled on minimal glucose agar with carbenicillin or gentamicin at twice the control MIC (plus kanamycin and chloramphenicol for the plasmids), 48 h. Fold change of barcode share against drug-free plates; higher = less susceptible. Active = above 20 in both replicates (the paper's putatively resistant). '<' = one read or none on drug, '>' = one read or none on a drug-free plate. Shares are relative, so most strains fall below 1 when a few take over. Listed are strains with at least 15 reads on both drug-free plates, and hits; most hits rest on fewer reference reads. Replicate rank correlation about 0.5. Edits are read from barcodes.

B1: der V130A (protein)
chain: MVPVVALVGRPNVGKSTLFNRLTRTRDALVADFPGLTRDRKYGRAEIEGREFICIDTGGIDGTEDGVETRMAEQSLLAIEEADVVLFMVDARAGLMPADEAIAKHLRSREKPTFLVANKTDGLDPDQAVADFYSLGLGEIYPIAASHGRGVLSLLEHVLLPWMEDLAPQEEVDEDAEYWAQFEAEENGEEEEEDDFDPQSLPIKLAIVGRPNVGKSTLTNRILGEERVVVYDMPGTTRDSIYIPMERDGREYVLIDTAGVRKRGKITDAVEKFSVIKTLQAIEDANVVMLVIDAREGISDQDLSLLGFILNSGRSLVIVVNKWDGLSQEVKEQVKETLDFRLGFIDFARVHFISALHGSGVGNLFESVREAYDSSTRRVGTSMLTRIMTMAVEDHQPPLVRGRRVKLKYAHAGGYNPPIVVIHGNQVKDLPDSYKRYLMNYFRKSLDVMGSPIRIQFKEGENPYANKRNTLTPTQMRKRKRLMKHIKKNK
B2: der V317A (protein)
chain: MVPVVALVGRPNVGKSTLFNRLTRTRDALVADFPGLTRDRKYGRAEIEGREFICIDTGGIDGTEDGVETRMAEQSLLAIEEADVVLFMVDARAGLMPADEAIAKHLRSREKPTFLVANKTDGLDPDQAVVDFYSLGLGEIYPIAASHGRGVLSLLEHVLLPWMEDLAPQEEVDEDAEYWAQFEAEENGEEEEEDDFDPQSLPIKLAIVGRPNVGKSTLTNRILGEERVVVYDMPGTTRDSIYIPMERDGREYVLIDTAGVRKRGKITDAVEKFSVIKTLQAIEDANVVMLVIDAREGISDQDLSLLGFILNSGRSLAIVVNKWDGLSQEVKEQVKETLDFRLGFIDFARVHFISALHGSGVGNLFESVREAYDSSTRRVGTSMLTRIMTMAVEDHQPPLVRGRRVKLKYAHAGGYNPPIVVIHGNQVKDLPDSYKRYLMNYFRKSLDVMGSPIRIQFKEGENPYANKRNTLTPTQMRKRKRLMKHIKKNK
B3: der V317D (protein)
chain: MVPVVALVGRPNVGKSTLFNRLTRTRDALVADFPGLTRDRKYGRAEIEGREFICIDTGGIDGTEDGVETRMAEQSLLAIEEADVVLFMVDARAGLMPADEAIAKHLRSREKPTFLVANKTDGLDPDQAVVDFYSLGLGEIYPIAASHGRGVLSLLEHVLLPWMEDLAPQEEVDEDAEYWAQFEAEENGEEEEEDDFDPQSLPIKLAIVGRPNVGKSTLTNRILGEERVVVYDMPGTTRDSIYIPMERDGREYVLIDTAGVRKRGKITDAVEKFSVIKTLQAIEDANVVMLVIDAREGISDQDLSLLGFILNSGRSLDIVVNKWDGLSQEVKEQVKETLDFRLGFIDFARVHFISALHGSGVGNLFESVREAYDSSTRRVGTSMLTRIMTMAVEDHQPPLVRGRRVKLKYAHAGGYNPPIVVIHGNQVKDLPDSYKRYLMNYFRKSLDVMGSPIRIQFKEGENPYANKRNTLTPTQMRKRKRLMKHIKKNK
B4: der V130W (protein)
chain: MVPVVALVGRPNVGKSTLFNRLTRTRDALVADFPGLTRDRKYGRAEIEGREFICIDTGGIDGTEDGVETRMAEQSLLAIEEADVVLFMVDARAGLMPADEAIAKHLRSREKPTFLVANKTDGLDPDQAVWDFYSLGLGEIYPIAASHGRGVLSLLEHVLLPWMEDLAPQEEVDEDAEYWAQFEAEENGEEEEEDDFDPQSLPIKLAIVGRPNVGKSTLTNRILGEERVVVYDMPGTTRDSIYIPMERDGREYVLIDTAGVRKRGKITDAVEKFSVIKTLQAIEDANVVMLVIDAREGISDQDLSLLGFILNSGRSLVIVVNKWDGLSQEVKEQVKETLDFRLGFIDFARVHFISALHGSGVGNLFESVREAYDSSTRRVGTSMLTRIMTMAVEDHQPPLVRGRRVKLKYAHAGGYNPPIVVIHGNQVKDLPDSYKRYLMNYFRKSLDVMGSPIRIQFKEGENPYANKRNTLTPTQMRKRKRLMKHIKKNK
B5: der V130P (protein)
chain: MVPVVALVGRPNVGKSTLFNRLTRTRDALVADFPGLTRDRKYGRAEIEGREFICIDTGGIDGTEDGVETRMAEQSLLAIEEADVVLFMVDARAGLMPADEAIAKHLRSREKPTFLVANKTDGLDPDQAVPDFYSLGLGEIYPIAASHGRGVLSLLEHVLLPWMEDLAPQEEVDEDAEYWAQFEAEENGEEEEEDDFDPQSLPIKLAIVGRPNVGKSTLTNRILGEERVVVYDMPGTTRDSIYIPMERDGREYVLIDTAGVRKRGKITDAVEKFSVIKTLQAIEDANVVMLVIDAREGISDQDLSLLGFILNSGRSLVIVVNKWDGLSQEVKEQVKETLDFRLGFIDFARVHFISALHGSGVGNLFESVREAYDSSTRRVGTSMLTRIMTMAVEDHQPPLVRGRRVKLKYAHAGGYNPPIVVIHGNQVKDLPDSYKRYLMNYFRKSLDVMGSPIRIQFKEGENPYANKRNTLTPTQMRKRKRLMKHIKKNK
B6: der V130D (protein)
chain: MVPVVALVGRPNVGKSTLFNRLTRTRDALVADFPGLTRDRKYGRAEIEGREFICIDTGGIDGTEDGVETRMAEQSLLAIEEADVVLFMVDARAGLMPADEAIAKHLRSREKPTFLVANKTDGLDPDQAVDDFYSLGLGEIYPIAASHGRGVLSLLEHVLLPWMEDLAPQEEVDEDAEYWAQFEAEENGEEEEEDDFDPQSLPIKLAIVGRPNVGKSTLTNRILGEERVVVYDMPGTTRDSIYIPMERDGREYVLIDTAGVRKRGKITDAVEKFSVIKTLQAIEDANVVMLVIDAREGISDQDLSLLGFILNSGRSLVIVVNKWDGLSQEVKEQVKETLDFRLGFIDFARVHFISALHGSGVGNLFESVREAYDSSTRRVGTSMLTRIMTMAVEDHQPPLVRGRRVKLKYAHAGGYNPPIVVIHGNQVKDLPDSYKRYLMNYFRKSLDVMGSPIRIQFKEGENPYANKRNTLTPTQMRKRKRLMKHIKKNK
B7: der I422A (protein)
chain: MVPVVALVGRPNVGKSTLFNRLTRTRDALVADFPGLTRDRKYGRAEIEGREFICIDTGGIDGTEDGVETRMAEQSLLAIEEADVVLFMVDARAGLMPADEAIAKHLRSREKPTFLVANKTDGLDPDQAVVDFYSLGLGEIYPIAASHGRGVLSLLEHVLLPWMEDLAPQEEVDEDAEYWAQFEAEENGEEEEEDDFDPQSLPIKLAIVGRPNVGKSTLTNRILGEERVVVYDMPGTTRDSIYIPMERDGREYVLIDTAGVRKRGKITDAVEKFSVIKTLQAIEDANVVMLVIDAREGISDQDLSLLGFILNSGRSLVIVVNKWDGLSQEVKEQVKETLDFRLGFIDFARVHFISALHGSGVGNLFESVREAYDSSTRRVGTSMLTRIMTMAVEDHQPPLVRGRRVKLKYAHAGGYNPPIVVAHGNQVKDLPDSYKRYLMNYFRKSLDVMGSPIRIQFKEGENPYANKRNTLTPTQMRKRKRLMKHIKKNK
B8: der V130Q (protein)
chain: MVPVVALVGRPNVGKSTLFNRLTRTRDALVADFPGLTRDRKYGRAEIEGREFICIDTGGIDGTEDGVETRMAEQSLLAIEEADVVLFMVDARAGLMPADEAIAKHLRSREKPTFLVANKTDGLDPDQAVQDFYSLGLGEIYPIAASHGRGVLSLLEHVLLPWMEDLAPQEEVDEDAEYWAQFEAEENGEEEEEDDFDPQSLPIKLAIVGRPNVGKSTLTNRILGEERVVVYDMPGTTRDSIYIPMERDGREYVLIDTAGVRKRGKITDAVEKFSVIKTLQAIEDANVVMLVIDAREGISDQDLSLLGFILNSGRSLVIVVNKWDGLSQEVKEQVKETLDFRLGFIDFARVHFISALHGSGVGNLFESVREAYDSSTRRVGTSMLTRIMTMAVEDHQPPLVRGRRVKLKYAHAGGYNPPIVVIHGNQVKDLPDSYKRYLMNYFRKSLDVMGSPIRIQFKEGENPYANKRNTLTPTQMRKRKRLMKHIKKNK
B9: der I318P (protein)
chain: MVPVVALVGRPNVGKSTLFNRLTRTRDALVADFPGLTRDRKYGRAEIEGREFICIDTGGIDGTEDGVETRMAEQSLLAIEEADVVLFMVDARAGLMPADEAIAKHLRSREKPTFLVANKTDGLDPDQAVVDFYSLGLGEIYPIAASHGRGVLSLLEHVLLPWMEDLAPQEEVDEDAEYWAQFEAEENGEEEEEDDFDPQSLPIKLAIVGRPNVGKSTLTNRILGEERVVVYDMPGTTRDSIYIPMERDGREYVLIDTAGVRKRGKITDAVEKFSVIKTLQAIEDANVVMLVIDAREGISDQDLSLLGFILNSGRSLVPVVNKWDGLSQEVKEQVKETLDFRLGFIDFARVHFISALHGSGVGNLFESVREAYDSSTRRVGTSMLTRIMTMAVEDHQPPLVRGRRVKLKYAHAGGYNPPIVVIHGNQVKDLPDSYKRYLMNYFRKSLDVMGSPIRIQFKEGENPYANKRNTLTPTQMRKRKRLMKHIKKNK
B10: der V317Q (protein)
chain: MVPVVALVGRPNVGKSTLFNRLTRTRDALVADFPGLTRDRKYGRAEIEGREFICIDTGGIDGTEDGVETRMAEQSLLAIEEADVVLFMVDARAGLMPADEAIAKHLRSREKPTFLVANKTDGLDPDQAVVDFYSLGLGEIYPIAASHGRGVLSLLEHVLLPWMEDLAPQEEVDEDAEYWAQFEAEENGEEEEEDDFDPQSLPIKLAIVGRPNVGKSTLTNRILGEERVVVYDMPGTTRDSIYIPMERDGREYVLIDTAGVRKRGKITDAVEKFSVIKTLQAIEDANVVMLVIDAREGISDQDLSLLGFILNSGRSLQIVVNKWDGLSQEVKEQVKETLDFRLGFIDFARVHFISALHGSGVGNLFESVREAYDSSTRRVGTSMLTRIMTMAVEDHQPPLVRGRRVKLKYAHAGGYNPPIVVIHGNQVKDLPDSYKRYLMNYFRKSLDVMGSPIRIQFKEGENPYANKRNTLTPTQMRKRKRLMKHIKKNK
B11: acpS I124A (protein)
chain: MAILGLGTDIVEIARIEAVIARSGDRLARRVLSDNEWAIWKTHHQPVRFLAKRFAVKEAAAKAFGTGIRNGLAFNQFEVFNDELGKPRLRLWGEALKLAEKLGVANMHVTLADERHYACATVIAES

What follows are proteins tested against Escherichia coli (laboratory strain) (assay: barcode share on antibiotic plates over drug-free plates; higher = less susceptible). Details: antibiotic: carbenicillin; 2× MIC (3.1 µg/mL).
Description: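 A pool of E. coli strains, each edited to carry one amino-acid change in an essential protein, was grown for 48 h on minimal glucose agar with or without antibiotic; strain barcodes were sequenced; mean of two replicates.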

Protein | fold change of barcode share
B1 | 0.359 ± 0.22
B2 | 0.219 ± 0.022
B3 | 0.707 ± 0.35
B4 | 0.207 ± 0.084
B5 | 0.386 ± 0.13
B6 | 0.297 ± 0.18
B7 | 0.527 ± 0.18
B8 | 0.372 ± 0.08
B9 | 0.303 ± 0.063
B10 | 0.255 ± 0.17
B11 | 0.368 ± 0.045

Same assay, conditions: antibiotic: gentamicin; 2× MIC (MIC 0.45 µg/mL)

Protein | fold change of barcode share
B1 | 0.0583 ± 0.073
B2 | 0.00402 ± 0.0033
B3 | 0.0106 ± 0.011
B4 | < 0.00416
B5 | 0.00445 ± 0.0025
B6 | < 0.0039
B7 | 0.0168 ± 0.016
B8 | 0.00688 ± 0.0045
B9 | 0.00972 ± 0.011
B10 | 0.00516 ± 0.002
